Our source for the binding signal values is publication PMC12136788.

The other results are listed elsewhere or left out.

T1: UNK ZnF1-6 (called full-length) (human, UniProt Q9C0B0 30-357)
T1 sequence: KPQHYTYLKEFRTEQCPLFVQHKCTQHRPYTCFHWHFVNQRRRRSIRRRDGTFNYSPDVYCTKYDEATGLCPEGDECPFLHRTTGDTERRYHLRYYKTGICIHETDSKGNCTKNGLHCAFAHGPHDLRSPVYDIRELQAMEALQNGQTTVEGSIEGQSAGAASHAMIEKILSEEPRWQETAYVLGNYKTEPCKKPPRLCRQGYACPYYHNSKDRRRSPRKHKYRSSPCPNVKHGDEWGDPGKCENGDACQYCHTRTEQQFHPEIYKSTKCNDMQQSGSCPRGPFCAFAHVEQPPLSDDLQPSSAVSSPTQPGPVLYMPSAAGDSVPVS

B1: chr9:34892658:34893152:-|CDS|ENSG00000187791|control|control|control (ssRNA)
RNA: GGGAGUUCUACAGUCCGACGAUCCCAUCACAGGGCUCCUCUUGCCUAGAGGCUUUGUCCACAUCUAGUGUGUCUUUUAAGCAUAGUCAGGAUCUGGGCUCCCCGAAAUCCAAAGAGCUUUCACUGGCAUCUGUAACUCCAACACAACAGAGGAUUGAGCAUCA
B2: chr1:212100457:212100572:+|CDS|ENSG00000143476|unk|total|mutant (ssRNA)
RNA: GGGAGUUCUACAGUCCGACGAUCAGAAGAGGCUCUGUCUCCUCCGUCUCUCCCAAGCCACCUUCAUCUUUCAAGAUGUCGAUCCGAAACUGGGUGACCCGAACACCUUCCUCAUCACCACCCAUCACUCCACCUGCUUCGGAGCAACAGAGGAUUGAGCAUCA
B3: chr14:71589133:71589262:+|CDS|ENSG00000197555|unk|FALSE|unique (ssRNA)
RNA: GGGAGUUCUACAGUCCGACGAUCGAGAUAGGUGGAGAAGGGGAGAGGAAAAUCAGCCUUUCAAAAUCAAAUUCUGGCUCCUUUAGUGGAUGUGAAAGUGCCUCCUUUGAGUCUACCCUUAGUUCCCAUUGCACAAAUGCAGGACAACAGAGGAUUGAGCAUCA
B4: ENSG00000124766:be:win_1401|CDS_3pUTR|ENSG00000124766|bound_else_gene|NA|bound_elsewhere_windowed (ssRNA)
RNA: GGGAGUUCUACAGUCCGACGAUCCUCCAACCUGGUUUUCACCUACUGAAGGGCGCGCAGGCAGGGAGAAGGGCCGGGGGGGGUAGGAGAGGAGAAAAAAAAAGUGAAAAAAAGAAACGAAAAGGACAGACGAAGAGUUUAAAGCAACAGAGGAUUGAGCAUCA
B5: chr7:16784014:16784129:+|3pUTR|ENSG00000106537|msi1_unk|FALSE|overlapping (ssRNA)
RNA: GGGAGUUCUACAGUCCGACGAUCGAUAAUUUACUUGUAGUCUUUUAUGAUUACACCAAUGUAUUCUAGAAAUAGUUAUGUCUUAGGAAAUUGUGGUUUAAUUUUUGACUUUUACAGGUAAGUGCAAAGGAGAAGUGGUUUCAUCAACAGAGGAUUGAGCAUCA
B6: chr17:39604750:39604851:-|3pUTR|ENSG00000171532|msi1|FALSE|unique (ssRNA)
RNA: GGGAGUUCUACAGUCCGACGAUCAUUUUGGCGGGAGGGGAAGUGGAUUGAGAGGAAAGAGAGAGGCCAAGACAAUUUGUAACUAGAAUCCGUUUUUCCCUUUUCCUUUUUUUAAACAAACAAACAUACAAAAAAAAAAAAAAACAACAGAGGAUUGAGCAUCA
B7: ENSG00000198589:be:win_401|CDS|ENSG00000198589|bound_else_gene|NA|bound_elsewhere_windowed (ssRNA)
RNA: GGGAGUUCUACAGUCCGACGAUCUUGAAAAAGUGCUUGGGAAAAUUGAAAAAGUUGACAAUAUGAUAGCAGAUCUUUUGGUUGACAUGUUGGGAGUGCUGGCUAGCUAUAAUUUGACAGUUCGCGAGCUAAAGCUUUUCUUCACAACAGAGGAUUGAGCAUCA
B8: chr19:3610644:3612413:-|three_prime_utr|ENSG00000105298|control|control|control (ssRNA)
RNA: GGGAGUUCUACAGUCCGACGAUCAGGGGGGUCACCAUUGAGCCUGCCAUGGUGAGCUGAGGAGACACUGGGACAGGCUGGCCUAGGGUCCUGAUGCAACGGAGGGGGCGCUAGGGGCAUCUUUCGAGCACGAGGGUGGCCAGCCAACAGAGGAUUGAGCAUCA
B9: ENSG00000070961:be:win_2501|CDS|ENSG00000070961|bound_else_gene|NA|bound_elsewhere_windowed (ssRNA)
RNA: GGGAGUUCUACAGUCCGACGAUCACUUUACAAGCAUUGUUAAAGCAGUUAUGUGGGGACGAAAUGUCUAUGACAGCAUCUCAAAAUUCCUUCAGUUCCAACUUACUGUUAAUGUAGUAGCAGUGAUUGUUGCUUUUACGGGCGCAACAGAGGAUUGAGCAUCA
B10: chr15:25371268:25371377:-|CDS|ENSG00000114062|unk|FALSE|unique (ssRNA)
RNA: GGGAGUUCUACAGUCCGACGAUCCACAAUGUAUACUCUCGAGAUCCUAAUUAUCUGAAUUUGUUCAUUAUCGUAAUGGAGAAUAGAAAUCUCCACAGUCCUGAAUAUCUGGAAAUGGCUUUGCCAUUAUUUUGCAAAGCGAUGCAACAGAGGAUUGAGCAUCA
B11: chr17:48622902:48623135:-|CDS|ENSG00000170689|control|control|control (ssRNA)
RNA: GGGAGUUCUACAGUCCGACGAUCUACCAGACGCUGGAGCUAGAGAAGGAGUUUCUGUUCAAUAUGUACCUCACCAGGGACCGUAGGCACGAAGUGGCCAGACUCCUCAAUCUGAGUGAGAGACAAGUCAAAAUCUGGUUUCAGCAACAGAGGAUUGAGCAUCA
B12: chr20:35276351:35277713:-|three_prime_utr|ENSG00000126005|control|control|control (ssRNA)
RNA: GGGAGUUCUACAGUCCGACGAUCCUCCUCUCCCCACGUCCCUGCGUCUCUUACACCCCCUCCCACCCGAGGCUCCCCAGAGAUAGCAGAGAAUUCGAAGAGGUCGCCGGGGACUGGAAAGAAGUCCCGGCAGGGCCGCCUUCGCAACAGAGGAUUGAGCAUCA
B13: chr3:27376575:27376676:-|3pUTR|ENSG00000033867|msi1|FALSE|bound_elsewhere (ssRNA)
RNA: GGGAGUUCUACAGUCCGACGAUCCUAUAUAUAAGAAUAUUGUAUGUCAUGCUGUUUAUGUGUGACUACCGGGUUUUUAAAAGUAGUGUCUGGAGUUUGUAAUGAGCACCGUGGAGACUAUGUAUUUAAUGAAAUGCUCUCUUUCAACAGAGGAUUGAGCAUCA
B14: chr19:36448979:36450001:-|CDS|ENSG00000186017|control|control|control (ssRNA)
RNA: GGGAGUUCUACAGUCCGACGAUCCAGAGUUCACAGCUUAUUAGUCAUCAUAGAAUUCAUACUAGUGAGAAACCCUAUGAAUAUAGGGAAUGUGGAAAGAACUUUAAUUAUGACCCACAACUUAUUCAGCAUCAAAAUUUGUACCAACAGAGGAUUGAGCAUCA
B15: ENSG00000124766:be:win_551|CDS|ENSG00000124766|bound_else_gene|NA|bound_elsewhere_windowed (ssRNA)
RNA: GGGAGUUCUACAGUCCGACGAUCCGAGUGGCGGCGGCGCCAACUCCAAACCGGCGCAGAAAAAGAGCUGCGGCUCCAAAGUGGCGGGCGGCGCGGGCGGUGGGGUUAGCAAACCGCACGCCAAGCUCAUCCUGGCAGGCGGCGCAACAGAGGAUUGAGCAUCA
B16: chr15:83017406:83017507:-|3pUTR|ENSG00000064726|msi1|total|mutant (ssRNA)
RNA: GGGAGUUCUACAGUCCGACGAUCGGCCUAAUAAAAUGCCCAAGAAAAUAUUCAGUGCAUUUACCGAGAAGGAUAUUUUGCCGCCGUACCGUAAUGUGUUAUGCCGUACAGUUUUAAAGCUAUAAAUGGAAUUUUGUGUAAAUUCAACAGAGGAUUGAGCAUCA
B17: chr14:74942539:74942640:-|3pUTR|ENSG00000119630|msi1|FALSE|unique (ssRNA)
RNA: GGGAGUUCUACAGUCCGACGAUCGUGUAUUUAUUACCGUCACACUCUUCAGUGACUCCUGCUGGUACCUGCCCUCUAUUUAUUAGCCAACUGUUUCCCUGCUGAAUGCCUCGCUCCCUUCAAGACGAGGGGCAGGGAAGGACACAACAGAGGAUUGAGCAUCA
B18: chr18:722677:722778:-|3pUTR|ENSG00000176105|msi1|total|mutant (ssRNA)
RNA: GGGAGUUCUACAGUCCGACGAUCCCGCGCCCAGCCUACAUUCACUUCUAAAGUCUAUGUAAUGGUGGUCAUUUUUUCCCUUUCCGAAUACAUUAAAUGGUUGAUUUGGGGAGGAAAACUUAUUCUGAAUAUUAACGGUGGUGACAACAGAGGAUUGAGCAUCA
B19: chr22:39522180:39522281:+|CDS|ENSG00000128272|msi1|total|mutant (ssRNA)
RNA: GGGAGUUCUACAGUCCGACGAUCGCUUACGUUGCCAUGAUCCCUCAGUGCAUAAAGGAGGAAGACACCCCUUCAGAUAAUGACCGUGGCAUCUGUAUGAGCCCAGAGUCCUAUCUGGGGUCUCCUCAGCACAGCCCCUCUACCCAACAGAGGAUUGAGCAUCA
B20: chr9:37126384:37126485:+|CDS|ENSG00000147905|unk|FALSE|unique (ssRNA)
RNA: GGGAGUUCUACAGUCCGACGAUCUAUCGAGAUGAGUCAUCUAGUGAACUGAGUGUUGAUAGUGAGGUGGAAUUUCAACUCUAUAGCCAAAUUCAUUAUGCCCAAGAUCUUGAUGAUGUCAUCAGGGAGGAAGAGCAUGAAGAACAACAGAGGAUUGAGCAUCA
B21: chr1:231223762:231225466:-|three_prime_utr|ENSG00000143633|control|control|control (ssRNA)
RNA: GGGAGUUCUACAGUCCGACGAUCAUCUGGAUGAACCUACUGAUGAGUUCUGACAAGGACGCCUUGAAUGUAUGUGGUGUUGCUAGCCCAUUAGAGCGCUUCACUGUCUCUCAUUUAUCCUUGUCAAAGUAGGAUUUAGUAAACCAACAGAGGAUUGAGCAUCA
B22: ENSG00000070961:be:win_1251|CDS|ENSG00000070961|bound_else_gene|NA|bound_elsewhere_windowed (ssRNA)
RNA: GGGAGUUCUACAGUCCGACGAUCGAAGUUCUUCAUUAUUGGAGUUACAGUUUUAGUGGUCGCAGUGCCAGAAGGUCUUCCACUUGCAGUCACGAUCUCACUGGCUUAUUCAGUCAAAAAAAUGAUGAAAGAUAAUAACUUAGUCAACAGAGGAUUGAGCAUCA

For the assay, the target named is T1, UNK ZnF1-6 (called full-length). In words: nsRBNS (natural sequence RNA bind-n-seq); RBNS binding buffer (assumed for nsRBNS): 25 mM Tris pH 7.5, 150 mM KCl, 3 mM MgCl2, 0.01% Triton X-100, 500 ug/ml BSA, 20 U/ml SUPERase-In, 4 C; UNK is unkempt and MSI1 is Musashi-1; names of the RNAs are library labels; protein concentration not given here; high values mean tight binding.
In turn, B1 returned a binding signal of 0.703 enrichment R. B2 gave a binding signal of 0.56 enrichment R. Next, B3: 1.15 enrichment R; B4: 1.03 enrichment R. With B5, the binding signal was 1.2 enrichment R. As for B6, the figure is 1.22 enrichment R. As for B7, the figure is 0.3 enrichment R; as for B8, 1.42 enrichment R; as for B9, 0.313 enrichment R. Next, B10: 0.516 enrichment R; B11: 0.572 enrichment R; B12: 0.869 enrichment R. Turning to B13, the binding signal came to 0.448 enrichment R. Next, B14: 1.15 enrichment R; B15: 0.701 enrichment R; B16: 0.415 enrichment R. As to B17, the binding signal turned out to be 0.781 enrichment R.

B18 displayed a binding signal of 0.385 enrichment R. As for B19, the figure is 0.659 enrichment R; as for B20, 0.566 enrichment R. Take B21: the binding signal amounted to 0.524 enrichment R. Consider B22, for which the binding signal was 0.339 enrichment R.
